In a collection of fitness landscapes (doi:10.1016/j.celrep.2020.107928):
In all, about 81,000 sequences were measured (“one-hybrid fitness for binding parS DNA”: median about -0.17, highest 2% from about 0.51 on). The list shows a part of the results.

B1: Caulobacter ParB omega fusion; a variant is named by its letters at X, in order, B8GW30 (parent)
chain: MESVVVGEPGMSEGRRGLGRGLSALLGEVDAAPAQAPGEQLGGSREAPIEILQRNPDQPRRTFREEDLEDLSNSIREKGVLQPILVRPSPDTAGEYQIVAGERAWRAAQRAGLKTVPIMVRELDDLAVLEIGIIENVQRADLNVLEEALSYKVLMEKFERTQENIAQTIGKSXSHVANXMRLLXLPDEVQSYLVSGELTAXHARAIAAAADPVALAKQIIEGGLSVRETEALARKAPNLSAGKSKGGRPPRVKDTDTQALESDLSSVLGLDVSIDHRGSTGTLTITYATLEQLDDLCNRLTRGI

Variants of: B1
Assay: one-hybrid fitness for binding parS DNA (scaled: cognate 1, non-cognate 0); higher = stronger binding
Conditions: with parS DNA site
In short: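 Bacterial one-hybrid selection in E. coli USO rpoZ- hisB- pyrF- with a HIS3 reporter carrying the site 19 bp from the promoter, screening Caulobacter ParB libraries with four specificity codons randomised (NNS). Cells grew 48 hours at 37°C on M9-minus-histidine plus 0.1 mM IPTG and 5 mM 3-AT. Plasmids before and after selection were Illumina-sequenced, three replicate libraries pooled, and variants under 10 reads dropped. Fitness is the log change in variant-to-wild-type read ratio, rescaled to cognate 1, non-cognate 0.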

Variant	one-hybrid fitness for binding parS DNA
IRPR	≤ 0.2
ITGS	≤ 0.2
AIRT	≤ 0.2
GCGL	≤ 0.2
DPTC	≤ 0.2
CVAQ	≤ 0.2
PRPY	≤ 0.2
HIRG	≤ 0.2
ENDG	≤ 0.2
PAKI	≤ 0.2
RKEW	≤ 0.2
AAQK	≤ 0.2
YLNT	≤ 0.2
VMTT	≤ 0.2
LCAT	≤ 0.2
TYEH	≤ 0.2
TPVM	≤ 0.2
RELS	0.237
NQWK	≤ 0.2
NCCR	≤ 0.2
HAHV	≤ 0.2
PICC	≤ 0.2
EHVL	≤ 0.2
QNCM	≤ 0.2
CLSR	≤ 0.2
IGGS	≤ 0.2

Variant	one-hybrid fitness for binding parS DNA
DRGT	≤ 0.2
STHC	≤ 0.2
VAQV	≤ 0.2
IMNC	≤ 0.2
ADRK	≤ 0.2
EFDG	≤ 0.2
PIGV	≤ 0.2
VMTW	≤ 0.2
MRLY	≤ 0.2
HHEK	≤ 0.2
GGYS	≤ 0.2
LAKC	≤ 0.2
KESY	≤ 0.2
VQNV	≤ 0.2
SLAT	≤ 0.2
IPDC	≤ 0.2
SRTR	≤ 0.2
PELG	≤ 0.2
QIDF	≤ 0.2
DPYY	≤ 0.2
DMHE	≤ 0.2
QTPM	≤ 0.2
CHSG	≤ 0.2
GFNY	≤ 0.2
AQRH	≤ 0.2
LTKY	≤ 0.2

Variant	one-hybrid fitness for binding parS DNA
GNLV	≤ 0.2
QQGE	≤ 0.2
TGVA	≤ 0.2
HTIT	≤ 0.2
HPQK	≤ 0.2
PTQH	≤ 0.2
KSSP	≤ 0.2
RMRC	0.867
LCLG	≤ 0.2
CAPW	≤ 0.2
PQST	≤ 0.2
QTAT	≤ 0.2
TLKC	≤ 0.2
DPQS	≤ 0.2
QRFY	≤ 0.2
RMEM	0.309
SFYG	≤ 0.2
FPPK	≤ 0.2
TYIP	≤ 0.2
QHAK	≤ 0.2
EQHV	≤ 0.2
TVST	≤ 0.2
WLFG	≤ 0.2
WNIP	≤ 0.2
SHDL	≤ 0.2
TMQG	≤ 0.2

Variant	one-hybrid fitness for binding parS DNA
SCPC	≤ 0.2
KYRK	≤ 0.2
QLMM	≤ 0.2
QQMP	≤ 0.2
SLFR	≤ 0.2
VAKP	≤ 0.2
HHPP	≤ 0.2
SRRM	≤ 0.2
QLSY	≤ 0.2
TKTH	≤ 0.2
RSRL	≤ 0.2
CCPD	≤ 0.2
RGSN	0.218
TQMS	≤ 0.2
GKMT	≤ 0.2
MRDG	≤ 0.2
RKTG	0.905
NCQT	≤ 0.2
RTFF	0.228
RGKF	≤ 0.2
GINR	≤ 0.2
FWKY	≤ 0.2
ESAR	≤ 0.2
FTCS	≤ 0.2
NMKW	≤ 0.2
QKES	≤ 0.2

Variant	one-hybrid fitness for binding parS DNA
TKRK	≤ 0.2
WWSR	≤ 0.2
HRDE	≤ 0.2
PWKR	≤ 0.2
TTMA	≤ 0.2
KKFG	≤ 0.2
IVGT	≤ 0.2
MTDN	≤ 0.2
CTAL	≤ 0.2
AKMA	≤ 0.2
HTLH	≤ 0.2
DQEG	≤ 0.2
PALV	≤ 0.2
QHEG	≤ 0.2
WGRC	≤ 0.2
EDFV	≤ 0.2
YSSI	≤ 0.2
YTSD	≤ 0.2
REQT	≤ 0.2
QKFC	≤ 0.2
YVLI	≤ 0.2
PSGC	≤ 0.2
VYCV	≤ 0.2
QIWY	≤ 0.2
YSTG	≤ 0.2
SRGG	≤ 0.2

Variant	one-hybrid fitness for binding parS DNA
WGIG	≤ 0.2
RHGY	0.429
QRES	≤ 0.2
CYHT	≤ 0.2
STSG	≤ 0.2
NRIR	≤ 0.2
PEER	≤ 0.2
ICSR	≤ 0.2
SDIM	≤ 0.2
FHRK	≤ 0.2
LDSD	≤ 0.2
PVDI	≤ 0.2
RYHF	≤ 0.2
QYHT	≤ 0.2
SYKH	≤ 0.2
WENR	≤ 0.2
RRGG	0.698
TLWC	≤ 0.2
ATRI	≤ 0.2
DDYR	≤ 0.2
VLFT	≤ 0.2
KLGL	≤ 0.2
WLNP	≤ 0.2
